{"source": "paper PMC9911399", "about": "“Two distinct binding modes provide the RNA-binding protein RbFox with extraordinary sequence specificity”", "binders": {"B1": {"name": "UAGCGUG (DNA:RNA)", "RNA": "GGGAGACCGGAAUUCAGAUUGUCCUAGCGUGUUAAAUCCCGUCGUAGCCACCA", "DNA 1": "CAATCTGAATTCCGGTCTCCC", "DNA 2": "TGGTGGCTACGACGGGATT"}, "B2": {"name": "AUCUGAA (DNA:RNA)", "RNA": "B1 RNA with U25A, A26U, G27C, C28U, U30A, G31A", "DNA 1": "CAATCTGAATTCCGGTCTCCC", "DNA 2": "TGGTGGCTACGACGGGATT"}, "B3": {"name": "UCGGCGA (DNA:RNA)", "RNA": "B1 RNA with A26C, C28G, G29C, U30G, G31A", "DNA 1": "CAATCTGAATTCCGGTCTCCC", "DNA 2": "TGGTGGCTACGACGGGATT"}, "B4": {"name": "GGCUAGG (DNA:RNA)", "RNA": "B1 RNA with U25G, A26G, G27C, C28U, G29A, U30G", "DNA 1": "CAATCTGAATTCCGGTCTCCC", "DNA 2": "TGGTGGCTACGACGGGATT"}, "B5": {"name": "GGCCAUG (ssRNA)", "RNA": "GGCCAUG"}, "B6": {"name": "UUUGCGC (DNA:RNA)", "RNA": "B1 RNA with A26U, G27U, C28G, G29C, U30G, G31C", "DNA 1": "CAATCTGAATTCCGGTCTCCC", "DNA 2": "TGGTGGCTACGACGGGATT"}, "B7": {"name": "ACCGGAG (DNA:RNA)", "RNA": "B1 RNA with U25A, A26C, G27C, C28G, U30A", "DNA 1": "CAATCTGAATTCCGGTCTCCC", "DNA 2": "TGGTGGCTACGACGGGATT"}, "B8": {"name": "UGUCUCA (DNA:RNA)", "RNA": "B1 RNA with A26G, G27U, G29U, U30C, G31A", "DNA 1": "CAATCTGAATTCCGGTCTCCC", "DNA 2": "TGGTGGCTACGACGGGATT"}, "B9": {"name": "AUUACUC (DNA:RNA)", "RNA": "B1 RNA with U25A, A26U, G27U, C28A, G29C, G31C", "DNA 1": "CAATCTGAATTCCGGTCTCCC", "DNA 2": "TGGTGGCTACGACGGGATT"}, "B10": {"name": "CAAAGUG (DNA:RNA)", "RNA": "B1 RNA with U25C, G27A, C28A", "DNA 1": "CAATCTGAATTCCGGTCTCCC", "DNA 2": "TGGTGGCTACGACGGGATT"}, "B11": {"name": "UUAUCGC (DNA:RNA)", "RNA": "B1 RNA with A26U, G27A, C28U, G29C, U30G, G31C", "DNA 1": "CAATCTGAATTCCGGTCTCCC", "DNA 2": "TGGTGGCTACGACGGGATT"}, "B12": {"name": "AUAAUCU (DNA:RNA)", "RNA": "GGGAGACCGGAAUUCAGAUUGUCCAUAAUCUUUAAAUCCCGUCGUAGCCACCA", "DNA 1": "CAATCTGAATTCCGGTCTCCC", "DNA 2": "TGGTGGCTACGACGGGATT"}, "B13": {"name": "UUGCAAU (DNA:RNA)", "RNA": "B1 RNA with A26U, G29A, U30A, G31U", "DNA 1": "CAATCTGAATTCCGGTCTCCC", "DNA 2": "TGGTGGCTACGACGGGATT"}, "B14": {"name": "UAUUCUU (DNA:RNA)", "RNA": "B1 RNA with G27U, C28U, G29C, G31U", "DNA 1": "CAATCTGAATTCCGGTCTCCC", "DNA 2": "TGGTGGCTACGACGGGATT"}, "B15": {"name": "GGUGGAG (DNA:RNA)", "RNA": "B1 RNA with U25G, A26G, G27U, C28G, U30A", "DNA 1": "CAATCTGAATTCCGGTCTCCC", "DNA 2": "TGGTGGCTACGACGGGATT"}, "B16": {"name": "CGGCACA (DNA:RNA)", "RNA": "B1 RNA with U25C, A26G, G29A, U30C, G31A", "DNA 1": "CAATCTGAATTCCGGTCTCCC", "DNA 2": "TGGTGGCTACGACGGGATT"}, "B17": {"name": "CCGCGGU (DNA:RNA)", "RNA": "B1 RNA with U25C, A26C, U30G, G31U", "DNA 1": "CAATCTGAATTCCGGTCTCCC", "DNA 2": "TGGTGGCTACGACGGGATT"}, "B18": {"name": "GUCGACC (DNA:RNA)", "RNA": "B12 RNA with A25G, A27C, A28G, U29A, U31C", "DNA 1": "CAATCTGAATTCCGGTCTCCC", "DNA 2": "TGGTGGCTACGACGGGATT"}, "B19": {"name": "GCGCCCC (DNA:RNA)", "RNA": "B1 RNA with U25G, A26C, G29C, U30C, G31C", "DNA 1": "CAATCTGAATTCCGGTCTCCC", "DNA 2": "TGGTGGCTACGACGGGATT"}, "B20": {"name": "ACACUUC (DNA:RNA)", "RNA": "B12 RNA with U26C, A28C, C30U, U31C", "DNA 1": "CAATCTGAATTCCGGTCTCCC", "DNA 2": "TGGTGGCTACGACGGGATT"}}, "key": {"[1]": {"target": "T1, RBFOX1 RRM RbFoxmut (Fox-RRM*) (Homo sapiens, UniProt Q9NWB1 109-208, R118D;E147R;N151S;E152T)", "T1 sequence": "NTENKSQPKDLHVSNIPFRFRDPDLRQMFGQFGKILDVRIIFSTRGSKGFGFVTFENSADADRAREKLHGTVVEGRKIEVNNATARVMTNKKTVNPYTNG", "assay": "EMSA; HiTS-Eq, 1 nM pool, 10 min; buffer printed only for the single-RNA assays: 10 mM Tris pH 7.5, 150 mM NaCl, 3.4 mM EDTA, 0.001% NP-40, 30 C", "settings": "tags: His6 N-terminal (pET28a); label: 5' 32P", "method_in_brief": "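A pool of RNA with 7 randomized nucleotides, 5′-radiolabelled and with DNA-annealed flanks, was equilibrated at 1 nM for 10 min in 50 µL with purified RbFox RRM, wild type or mutant, across increasing protein concentrations. Free RNA was separated by 8% native PAGE, excised, reverse-transcribed, barcoded by PCR and sequenced. Relative association constants were obtained from read-count changes of each RNA species versus the control reaction and normalised to the cognate motif.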"}, "[2]": {"target": "T1, RBFOX1 RRM RbFoxmut (Fox-RRM*)", "assay": "competition; 10 mM Tris pH 7.5, 150 mM NaCl, 3.4 mM EDTA, 0.001% NP-40, 30 C", "settings": "tags: His6 N-terminal (pET28a)"}}, "note": "Substitutions are numbered along the chain they refer to; changes in the protein carry UniProt numbers. The list shows a part of the results.", "data": [{"binder": "B1", "values": [{"measurement": "binding signal", "setting": "[1]", "result": "0.159 KA relative to UGCAUGU"}]}, {"binder": "B2", "values": [{"measurement": "binding signal", "setting": "[1]", "result": "0.0835 KA relative to UGCAUGU"}]}, {"binder": "B3", "values": [{"measurement": "binding signal", "setting": "[1]", "result": "0.0721 KA relative to UGCAUGU"}]}, {"binder": "B4", "values": [{"measurement": "binding signal", "setting": "[1]", "result": "0.0845 KA relative to UGCAUGU"}]}, {"binder": "B5", "values": [{"measurement": "binding signal", "setting": "[2]", "result": 852, "unit": "nM"}]}, {"binder": "B6", "values": [{"measurement": "binding signal", "setting": "[1]", "result": "0.15 KA relative to UGCAUGU"}]}, {"binder": "B7", "values": [{"measurement": "binding signal", "setting": "[1]", "result": "0.0806 KA relative to UGCAUGU"}]}, {"binder": "B8", "values": [{"measurement": "binding signal", "setting": "[1]", "result": "0.11 KA relative to UGCAUGU"}]}, {"binder": "B9", "values": [{"measurement": "binding signal", "setting": "[1]", "result": "0.0782 KA relative to UGCAUGU"}]}, {"binder": "B10", "values": [{"measurement": "binding signal", "setting": "[1]", "result": "0.11 KA relative to UGCAUGU"}]}, {"binder": "B11", "values": [{"measurement": "binding signal", "setting": "[1]", "result": "0.0817 KA relative to UGCAUGU"}]}, {"binder": "B12", "values": [{"measurement": "binding signal", "setting": "[1]", "result": "0.0765 KA relative to UGCAUGU"}]}, {"binder": "B13", "values": [{"measurement": "binding signal", "setting": "[1]", "result": "0.0678 KA relative to UGCAUGU"}]}, {"binder": "B14", "values": [{"measurement": "binding signal", "setting": "[1]", "result": "0.0993 KA relative to UGCAUGU"}]}, {"binder": "B15", "values": [{"measurement": "binding signal", "setting": "[1]", "result": "0.0892 KA relative to UGCAUGU"}]}, {"binder": "B16", "values": [{"measurement": "binding signal", "setting": "[1]", "result": "0.0649 KA relative to UGCAUGU"}]}, {"binder": "B17", "values": [{"measurement": "binding signal", "setting": "[1]", "result": "0.112 KA relative to UGCAUGU"}]}, {"binder": "B18", "values": [{"measurement": "binding signal", "setting": "[1]", "result": "0.0866 KA relative to UGCAUGU"}]}, {"binder": "B19", "values": [{"measurement": "binding signal", "setting": "[1]", "result": "0.0673 KA relative to UGCAUGU"}]}, {"binder": "B20", "values": [{"measurement": "binding signal", "setting": "[1]", "result": "0.0369 KA relative to UGCAUGU"}]}]}
